Assay results from PubChem BioAssay AID686970 (National Center for Advancing Translational Sciences (NCATS), 2013).
The whole screen tested about 360,000 compounds, of which about 6,000 (1.7%) were called active. The shares of active, inactive and inconclusive entries below differ from those in the screen. Calls follow the shape of the dose curve; as a rule, active = well fitted cell-killing curve with a large enough effect; inconclusive = small, poorly fitted or top-dose-only effect, or effect the other way; inactive = flat fitted curve, though single readings scatter. No potency is given beside an inconclusive call; the fits are too rough.

Assay: qHTS for induction of synthetic lethality in tumor cells producing 2HG: qHTS for the HT-1080-NT fibrosarcoma cell line;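 also: NT is the 2HG producing partner of a matched IDH1 knockdown line; nearly all actives have a fitted effect of over 55% in size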;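 as to activity, negative = less viability: 0% = DMSO-treated cells and -100% = media-only wells without cells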
Settings: HT-1080-NT fibrosarcoma viability, CellTiter-Glo ATP luminescence, 48 h; activity, negative = less viability: at 46.1 µM (top of the series) unless noted
Method in brief: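 Fibrosarcoma NT cells, 750 per well in 5% FBS RPMI, were exposed to compound for 48 hours. Viability: CellTiter-Glo luminescence.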
Potency is read from the fitted curve at half-maximal effect; tags tell the direction and shape of the fitted curve.

**Q.** For `Cc1ccc2nc(C3CCCCC3)c(Cc3ccccc3)n2c1`, which Potency is on record?
**A.** inconclusive [cytotoxic, single point]

**Q.** For `O=S(=O)(c1cc(C(F)(F)F)ccc1Cl)N1CCN(c2ncnc3ccccc23)CC1`, which Potency is on record?
**A.** inconclusive [cytotoxic, single point]

**Q.** Which activity, negative = less viability does the source give for `O=C(COC(=O)CNC(=O)C1CCCCC1)Nc1ccccc1` here?
**A.** inconclusive: 30.5%

**Q.** For `O=[N+]([O-])c1cc(CN2CCN(c3cccc(C(F)(F)F)c3)CC2)c2cccnc2c1O`, which Potency is on record?
**A.** inconclusive [cytotoxic, full curve]

**Q.** Which “activity, negative = less viability” value does the source give for `CCn1c(NC(=O)C(C)C)c2ccccc2nc1=O` here?
**A.** inactive: 15.4%

**Q.** For `C=CC[n+]1c(-c2ccc(Cl)cc2Cl)csc1Nc1c(C)n(C)n(-c2ccccc2)c1=O`, which Potency is on record?
**A.** active: 20.6 µM

**Q.** With `Cc1c(/C=N/NC(N)=O)c2ccccn2c1C(=O)c1ccncc1` as the compound, how does the Potency read?
**A.** inconclusive [cytotoxic, single point]

**Q.** With `CCC(=O)N(C)CCc1cc2c(c(OC)c1/C=N/NS(=O)(=O)c1ccc(C)cc1)OCO2` as the compound, how does the Potency read?
**A.** inconclusive [rising, single point]

**Q.** For `CCC1CCCCN1C(=O)c1cccc(S(=O)(=O)Nc2cc(C(F)(F)F)ccc2Cl)c1` (centres undefined), which Potency is on record?
**A.** inconclusive [cytotoxic, single point]

**Q.** For `Cc1cc2nc(C3CCN(CC4COc5ccccc5O4)CC3)[nH]c2cc1C` (centres undefined), which Potency is on record?
**A.** active: 14.6 µM

**Q.** For `CN(CC(=O)Nc1ccc(F)c(F)c1F)C(=O)CN1C(=O)C2CCCCC2C1=O` (centres undefined), which “activity, negative = less viability” value is on record?
**A.** inactive: 2.31%

**Q.** Which Potency does the source give for `COc1ccc(-c2c/c(=N\c3nc(-c4ccccc4)c(C)s3)c3ccccc3o2)cc1O` here?
**A.** active: 5.8 µM

**Q.** Which Potency does the source give for `N#CCC(CNc1ncc(C(F)(F)F)cc1Cl)OC(=O)c1ccc(Cl)cc1` (centres undefined) here?
**A.** inconclusive [cytotoxic, single point]

**Q.** For `C=CCn1c(SCC(=O)NC2CCCC2)nc2scc(-c3ccco3)c2c1=O`, which Potency is on record?
**A.** inconclusive [cytotoxic, single point]

**Q.** For `CN1CCN(S(=O)(=O)c2ccc(N3CCN(S(=O)(=O)/C=C/c4ccccc4)CC3)nc2)CC1`, which “activity, negative = less viability” value is on record?
**A.** inactive: -20.7%

**Q.** Which Potency does the source give for `Cc1onc(-c2ccccc2)c1C(=O)NC(=S)NNC(=O)c1cc(-c2ccc(F)cc2)n[nH]1` here?
**A.** inconclusive [cytotoxic, full curve]

**Q.** With `COc1ccc(CCNC(=O)C2CCN(Cc3nc(-c4ccccc4C)oc3C)CC2)cc1OC` as the compound, how does the Potency read?
**A.** inconclusive [cytotoxic, single point]

**Q.** For `Cc1cc(NC(=O)/C(C#N)=C\c2ccc(-c3ccc(SC(F)F)cc3)o2)n(-c2ccccc2)n1`, which “activity, negative = less viability” value is on record?
**A.** inactive: -12.6%

**Q.** With `COc1ccc(-c2cc(C3CCN(c4ncccc4[N+](=O)[O-])CC3)[nH]n2)cc1` as the compound, how does the Potency read?
**A.** inconclusive [cytotoxic, single point]
